# Experimental data as given in PubChem BioAssay AID624417 (National Center for Advancing Translational Sciences (NCATS), 2012).
# About 6,400 (1.6%) of roughly 410,000 compounds were called active. The inconclusive results got no clear call from the source; some entries with a clear call stand among them for comparison. Calls follow the shape of the dose curve; as a rule, active = well fitted inhibition curve with a large enough effect; inconclusive = small, poorly fitted or top-dose-only effect; inactive = no such curve, though single readings can be large or run the other way. No potency is given beside an inconclusive call; the fits are too rough.
# Molecular target: Glucagon-like peptide 1 receptor (Homo sapiens) (UniProt P43220)
# Assay: qHTS of GLP-1 Receptor Inverse Agonists (Inhibition Mode); also: nearly all actives have a fitted effect of over 55% in size
# Conditions: HEK293 GLP-1R CRE-luciferase, luminescence, 24 h, GLP-1R form is constitutively active; activity change, negative = inhibition: at 38.3 µM (top of the series) unless noted
# How it was run: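 GLP-1R inverse agonism mode: basal reporter luminescence in engineered HEK293 cells measured after one day of compound exposure at 37 deg C, with a 12 min room-temperature detection step.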
# % is scaled to controls: 0 for no effect and ±100 for the full control effect; potency is read from the fitted curve at half-maximal effect; tags tell the direction and shape of the fitted curve.
# Sequence of UniProt P43220 (P43220 whole entry, looked up): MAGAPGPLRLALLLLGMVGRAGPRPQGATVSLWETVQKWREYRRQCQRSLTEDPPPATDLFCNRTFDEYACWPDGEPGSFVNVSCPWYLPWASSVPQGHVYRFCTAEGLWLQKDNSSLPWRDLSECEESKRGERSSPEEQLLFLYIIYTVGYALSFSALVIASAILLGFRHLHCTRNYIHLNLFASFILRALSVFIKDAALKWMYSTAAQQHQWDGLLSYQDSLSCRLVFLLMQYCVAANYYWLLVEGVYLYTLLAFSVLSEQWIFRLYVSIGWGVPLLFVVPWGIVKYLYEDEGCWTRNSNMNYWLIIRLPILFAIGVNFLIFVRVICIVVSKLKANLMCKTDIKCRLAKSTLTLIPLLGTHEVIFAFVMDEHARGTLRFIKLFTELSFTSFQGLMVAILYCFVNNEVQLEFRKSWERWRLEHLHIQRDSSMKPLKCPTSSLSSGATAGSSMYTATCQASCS
Structure (SMILES),Potency,"activity change, negative = inhibition"
CC(=O)Nc1ccc(C(=O)NNC(=O)Cc2ccccc2)cc1,"inconclusive [inhibitor, partial curve]",
Cc1ccc(OCC(O)CN2CCN(Cc3ccc4c(c3)OCO4)CC2)cc1C (stereo unspecified),"inconclusive [inhibitor, partial curve, poor fit]",
CCc1ccc(-c2cc(C(=O)NN3CCN(C)CC3)c3ccccc3n2)cc1,"inconclusive [inhibitor, partial curve]",
Cc1nc2ccc(C(C(F)(F)F)(C(F)(F)F)C(F)(F)F)cc2[nH]1,"inconclusive [inhibitor, partial curve, poor fit]",
COc1ccc(/C=C/c2nnc(NC(C)=O)s2)cc1,"inconclusive [inhibitor, single point]",
Cn1ncc2c(O/N=C(\N)c3ccc(C(C)(C)C)cc3)ncnc21,"inconclusive [inhibitor, single point]",
COc1ccccc1CNC(=O)c1ccc(-c2ccccc2C(F)(F)F)o1,"inconclusive [inhibitor, single point]",
O=C(O)c1cc(N/N=C/c2ccc3c(c2)OCO3)ccc1Cl,"inconclusive [inhibitor, partial curve, poor fit]",
CCCCNC(=O)N1CCN(C(c2ccccc2)c2ccccc2)CC1,,inconclusive: -85.9% [inhibitor]
Cc1ccc2nc(NC(=O)c3cc(-c4ccco4)nc4ccccc34)sc2c1,,inactive: -20.5%
Cc1ccc(NC2=Nc3ccccc3CC2)cc1,"inconclusive [inhibitor, partial curve, poor fit]",
Cc1ccc(NC(=O)C(OC(=O)c2ccc(NC(N)=O)cc2)c2ccccc2)cc1Cl (stereo unspecified),"inconclusive [inhibitor, partial curve, poor fit]",
N/C(=N\S(=O)(=O)c1cc(C(F)(F)F)cc(C(F)(F)F)c1)c1ccccc1,"inconclusive [inhibitor, single point]",
COc1ccc(Cl)cc1NC(=O)c1c(C(=O)Nc2cccc(C)c2C)sc2nc(C)cc(=O)n12,,inactive: 0.946%
N#CCCNS(=O)(=O)c1ccc(C(=O)OCCCOC(=O)c2ccc(S(=O)(=O)NCCC#N)cc2)cc1,,inactive: 21%
COc1cccc(C2c3[nH]c4ccccc4c3CCN2Cc2cnn(C)c2)c1 (stereo unspecified),"inconclusive [inhibitor, single point]",
COc1ccc2cc(C(=O)N(C)Cc3ccccc3)[nH]c2c1,,inactive: 17.2%
C/C(=N\NC(=O)c1ccc(NS(=O)(=O)c2cccs2)cc1)c1cccs1,,inactive: 22.1%
O=c1c(C=Nc2cccc(C(F)(F)F)c2)c[nH]n1-c1cccc(Cl)n1,,inactive: 77.6%
CCOC(=O)C1(C(N)=O)OC1(c1ccc(Cl)cc1)c1ccccc1Cl (stereo unspecified),"inconclusive [inhibitor, single point]",
Cc1nn(Cc2ccccc2)c(C)c1NC(=O)c1cc(C(C)C)on1,"inconclusive [inhibitor, partial curve, poor fit]",
Cc1ccc(C(=O)NC(=S)Nc2ccc(-c3ccc(CO)o3)cc2)cc1,,inactive: 1.82%

Structure (SMILES),Potency,"activity change, negative = inhibition"
O=C(Nc1ccccc1N1CCCCC1)c1cc(S(=O)(=O)N2CCOCC2)ccc1F,"inconclusive [inhibitor, partial curve, poor fit]",
c1ccc(CSc2nnc(-c3ccco3)n2Cc2ccco2)cc1,"inconclusive [inhibitor, single point]",
Clc1ccc2[nH]cc(-c3nnnn3-c3ccc4ccccc4c3)c2c1,"inconclusive [inhibitor, full curve, poor fit]",
COc1ccc(-c2nc3ccccc3o2)cc1NC(=O)c1ccc(N2CCC(C)CC2)c([N+](=O)[O-])c1,,inactive: 12.8%
O=C(CN1CCCN(S(=O)(=O)c2ccc(F)cc2)CC1)Nc1ccccc1Br,"inconclusive [inhibitor, partial curve, poor fit]",
CCCCNCCOCCOc1ccc(Cl)cc1Br,,inactive: -6.19%
COc1ccc(CNC(=O)c2cc3c(=O)n(Cc4cccs4)ccc3nc2C)cc1,"inconclusive [inhibitor, full curve, poor fit]",
N#C/C(=C\c1ccc(-c2ccccc2[N+](=O)[O-])o1)C(=O)Nc1nc(-c2cccs2)cs1,"inconclusive [inhibitor, single point]",
CN1C(=O)CC(N2CCN(C(c3ccccc3)c3ccccc3)CC2)C1=O (stereo unspecified),"inconclusive [inhibitor, partial curve, poor fit]",
CCc1nc(C)cn1S(=O)(=O)c1cc(Br)c(C)cc1OC,"inconclusive [inhibitor, single point]",
CCOc1ccc(NS(=O)(=O)c2ccc(C(=O)NNC(=O)c3ccccc3O)cc2)cc1,"inconclusive [inhibitor, single point]",
[O-][n+]1cccc2c(Br)cc(Br)c(O)c21,"inconclusive [inhibitor, partial curve, poor fit]",
Cc1ccc2nc(N3CCN(C(=O)C4COc5ccccc5O4)CC3)sc2c1 (stereo unspecified),"inconclusive [inhibitor, single point]",
C[C@H]1CCC2[C@](C)(CO)[C@@H](O)CC[C@]2(C)[C@@]12CCC(CO)(CCO)O2 (stereo partly specified),,inactive: -0.651%
CC(=O)Nc1ccc(S(=O)(=O)N2CCN(c3cc(C)ccc3C)CC2)cc1,"inconclusive [inhibitor, single point]",
Cc1cccc(OCc2cc(-c3ccccc3)no2)c1C,"inconclusive [inhibitor, single point]",
O=C(CN1CCCCCC1)Nc1ccc([N+](=O)[O-])cc1Cl,"inconclusive [inhibitor, single point]",
COC(=O)c1ccc(CSc2nc3c([nH]c4ccccc43)c(=O)n2-c2cccc(OC)c2)o1,"inconclusive [inhibitor, single point]",
COc1ccccc1NS(=O)(=O)c1cccc(C(=O)NNC(=O)C(C)NC(=O)c2ccco2)c1 (stereo unspecified),,inactive: 2.32%
CC1CN(C(=S)SCC(=O)c2ccccc2)CC(C)O1 (stereo unspecified),"inconclusive [inhibitor, partial curve, poor fit]",
COc1cc(NC(=O)c2cccc(Cl)c2)c(OC)cc1NC(=O)CN1CCCCC1,"inconclusive [inhibitor, single point]",
CCN(C(=O)CSc1nnc(-c2ccc(Cl)cc2)o1)c1ccccc1,"inconclusive [inhibitor, single point]",

Structure (SMILES),Potency,"activity change, negative = inhibition"
CCn1c(SCC(=O)Nc2ccc(C)cc2)nc(O)cc1=O,,inactive: -12.3%
CCc1cc(-c2nc(N)ncc2-c2ccc(Br)cc2)c(O)cc1OC,"inconclusive [inhibitor, single point]",
Cc1ccc2c(NC(=O)c3ccc(Br)o3)cccc2n1,,inactive: 19.9%
CCOC(=O)c1cc(C)n(S(=O)(=O)c2ccc(C)cc2)c1C,"inconclusive [inhibitor, partial curve, poor fit]",
CCc1ccc(NC(=O)c2ccc(Cn3cc([N+](=O)[O-])cn3)cc2)cc1,"inconclusive [inhibitor, full curve, poor fit]",
CCCCCCCCC#Cc1nc(C)ccc1OC,"inconclusive [inhibitor, single point]",
COc1cc(OC)c2c(=O)cc(-c3ccccc3)oc2c1,,inactive: 50.7%
CCCCn1c(CCNC(=O)c2ccc(F)cc2)nc2ccccc21,"inconclusive [inhibitor, single point]",
COc1ccccc1CNc1nc(-c2ccco2)nn1C(=O)c1ccccc1[N+](=O)[O-],,inactive: -17.6%
C=C1CCN([C@@H](Cc2ccccc2)C(=O)NCCC(C)C)S(=O)(=O)c2ccccc21,"inconclusive [inhibitor, single point]",
O=C1N(Cc2ccccc2)c2ccc(Cl)cc2C12OCCO2,"inconclusive [inhibitor, partial curve, poor fit]",
COc1ccc(NC(=O)c2cc3ccccc3cc2O)cc1,,inactive: 68.9%
COc1ccc(NC(=O)/C(C#N)=C/c2c(C)nn(-c3ccc(F)cc3)c2Cl)cc1OC,"inconclusive [inhibitor, single point]",
O=C(NC1CCCC1)C1C(c2ccc(C(F)(F)F)cc2)=Nc2ccccc2N1C(=O)c1cc2ccccc2[nH]1 (stereo unspecified),"inconclusive [inhibitor, single point]",
O=C(c1ccccc1)N1CCOC(O)(c2ccccc2)C1c1ccccc1 (stereo unspecified),"inconclusive [inhibitor, partial curve, poor fit]",
O=C(CN1C(=O)C2CCCCN2c2ccc(C(=O)N3CCCC3)cc21)NCc1ccccc1 (stereo unspecified),,inactive: 1.37%
O=C1CCCC2=C1C1(CCCCC1)N=C(Nc1nc3ccccc3s1)N2,,inactive: -30.8%
COC(=O)c1ccccc1NC(=O)CSc1nc2sc3c(c2c(=O)[nH]1)CCCC3,,inactive: 13.4%
COCCCNC(=O)Cn1c(=O)n(-c2cccc(C)c2)c(=O)c2c3c(sc21)CN(C(C)=O)CC3,,inactive: -0.819%
Cc1ccc(-c2cc(Cc3ccc(F)cc3)c(=O)[nH]n2)cc1,"inconclusive [inhibitor, single point]",
c1ccc(OCCN2CCN(Cc3nc(-c4ccc5c(c4)OCO5)no3)CC2)cc1,"inconclusive [inhibitor, partial curve, poor fit]",
COc1ccc(CNC(=O)c2c(N)n(CCCN3CCOCC3)c3nc4ccccc4nc23)cc1,"inconclusive [inhibitor, single point]",
